Drawing on the supplement of paper PMC4604168 (melanoma cell lines), this text covers cell count for twelve compounds.

SMILES strings stand for the structures. The list shows a part of the results. Single values are uncertain, as repeats are few or missing.
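Also: cells treated in 1,536-well plates, then fixed and DAPI-stained, with nuclei counted from automated high-throughput microscope images.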

The test system of the assay is SkMel30. The assay is described as follows: cell count relative to DMSO control; melanoma cells; higher = more viable cells. Conditions: library dose: standard library concentration; 72 h.
Compound `CC[C@]1(O)C[C@H]2CN(CCc3c([nH]c4ccccc34)[C@@](C(=O)OC)(c3cc4c(cc3OC)N(C=O)[C@H]3[C@@](O)(C(=O)OC)[C@H](OC(C)=O)[C@]5(CC)C=CCN6CC[C@]43[C@@H]65)C2)C1` [vincristine] + COc1ccc(Cl)c(Nc2nc3ccccc3nc2NS(=O)(=O)c2cccc(NC(=O)C(C)(C)N)c2)c1 [XL147] (first compound 0.0005 µM, partner dose 4 µM) displayed a cell count of 61.7%.

Turning to `CC[C@]1(O)C[C@H]2CN(CCc3c([nH]c4ccccc34)[C@@](C(=O)OC)(c3cc4c(cc3OC)N(C=O)[C@H]3[C@@](O)(C(=O)OC)[C@H](OC(C)=O)[C@]5(CC)C=CCN6CC[C@]43[C@@H]65)C2)C1` [vincristine] + CO[C@H]1C[C@@H]2CC[C@@H](C)[C@@](O)(O2)C(=O)C(=O)N2CCCC[C@H]2C(=O)O[C@H]([C@H](C)C[C@@H]2CC[C@@H](OCCO)[C@H](OC)C2)CC(=O)[C@H](C)/C=C(\C)[C@@H](O)[C@@H](OC)C(=O)[C@H](C)C[C@H](C)/C=C/C=C/C=C/1C [everolimus] (first compound 0.0005 µM, partner dose 0.1 µM), the cell count amounted to 62.8%.

Take `N#CC[C@H](C1CCCC1)n1cc(-c2ncnc3[nH]ccc23)cn1` [ruxolitinib] + c1cc(-c2cnn3cc(-c4ccc(OCCN5CCCCC5)cc4)cnc23)ccn1 [Dorsomorphin] (first compound 5 µM, partner dose 2 µM): the cell count is 80.3%.

Compound `Cc1cc(Nc2cc(N3CCN(C)CC3)nc(Sc3ccc(NC(=O)C4CC4)cc3)n2)n[nH]1` [Tozasertib] + C[C@@H]1CCN(C(=O)CC#N)C[C@@H]1N(C)c1ncnc2[nH]ccc12 [CP690550] (first compound 0.03 µM, partner dose 5 µM) yielded a cell count of 103%.

With `N#CC[C@H](C1CCCC1)n1cc(-c2ncnc3[nH]ccc23)cn1` [ruxolitinib] + OCCn1cc(-c2cnc3nnn(Cc4ccc5ncccc5c4)c3n2)cn1 [PF04217903] (first compound 5 µM, partner dose 5 µM), the cell count worked out at 97.5%.

For the compound `CC[C@]1(O)C[C@H]2CN(CCc3c([nH]c4ccccc34)[C@@](C(=O)OC)(c3cc4c(cc3OC)N(C=O)[C@H]3[C@@](O)(C(=O)OC)[C@H](OC(C)=O)[C@]5(CC)C=CCN6CC[C@]43[C@@H]65)C2)C1` [vincristine] + O=C(CCCCCCC(=O)Nc1ccccc1)NO [vorinostat] (first compound 0.0005 µM, partner dose 0.4 µM), the cell count stood at 46.2%.

In the case of `N#CC[C@H](C1CCCC1)n1cc(-c2ncnc3[nH]ccc23)cn1` [ruxolitinib] + O=C1NC(=O)/C(=C/c2ccc(-c3ccc(F)cc3O)o2)S1 [AS252424] (first compound 5 µM, partner dose 5 µM), the cell count was 108%.

Consider `CC[C@]1(O)C[C@H]2CN(CCc3c([nH]c4ccccc34)[C@@](C(=O)OC)(c3cc4c(cc3OC)N(C=O)[C@H]3[C@@](O)(C(=O)OC)[C@H](OC(C)=O)[C@]5(CC)C=CCN6CC[C@]43[C@@H]65)C2)C1` [vincristine] + O=C1NC(=O)/C(=C/c2ccc(-c3ccc(F)cc3O)o2)S1 [AS252424] (first compound 0.0005 µM, partner dose 5 µM), for which the cell count amounted to 50%.

`N#CC[C@H](C1CCCC1)n1cc(-c2ncnc3[nH]ccc23)cn1` [ruxolitinib] + C[C@@H](Oc1cc(-c2cnn(C3CCNCC3)c2)cnc1N)c1c(Cl)ccc(F)c1Cl [Crizotinib] (first compound 5 µM, partner dose 1 µM) registered a cell count of 105%.

For `Cc1cc(Nc2cc(N3CCN(C)CC3)nc(Sc3ccc(NC(=O)C4CC4)cc3)n2)n[nH]1` [Tozasertib] + NCC(=O)Nc1ccc(-n2nc(C(F)(F)F)cc2-c2ccc3c(ccc4ccccc43)c2)cc1 [OSU03012] (first compound 0.03 µM, partner dose 5 µM), the cell count is 60.6%.

Compound `Cc1cc(Nc2cc(N3CCN(C)CC3)nc(Sc3ccc(NC(=O)C4CC4)cc3)n2)n[nH]1` [Tozasertib] + Cc1cc([N+](=O)[O-])ccc1NS(=O)(=O)c1cc(Cl)ccc1Cl [FH535] (first compound 0.03 µM, partner dose 5 µM) came in with a cell count of 100%.

Turning to `N#CC[C@H](C1CCCC1)n1cc(-c2ncnc3[nH]ccc23)cn1` [ruxolitinib] + CCN(CC)CCCCNc1ncc2cc(-c3cc(OC)cc(OC)c3)c(NC(=O)NC(C)(C)C)nc2n1 [PD173074] (first compound 5 µM, partner dose 0.5 µM), the cell count amounted to 107%.
